Screen size: about 200,000 compounds; about 4,500 (2.2%) were called active. Inconclusive means that the source gave no clear call. Such entries were picked first, then a sample of the others. Calls follow the shape of the dose curve; as a rule, active = well fitted inhibition curve with a large enough effect; inconclusive = small, poorly fitted or top-dose-only effect, or effect the other way; inactive = flat fitted curve, though single readings scatter. A potency beside an inconclusive call is a rough fit, not a confirmed value.
Target: Cruzipain (Trypanosoma cruzi) (UniProt P25779)
Sequence of UniProt P25779 (P25779 whole entry, looked up): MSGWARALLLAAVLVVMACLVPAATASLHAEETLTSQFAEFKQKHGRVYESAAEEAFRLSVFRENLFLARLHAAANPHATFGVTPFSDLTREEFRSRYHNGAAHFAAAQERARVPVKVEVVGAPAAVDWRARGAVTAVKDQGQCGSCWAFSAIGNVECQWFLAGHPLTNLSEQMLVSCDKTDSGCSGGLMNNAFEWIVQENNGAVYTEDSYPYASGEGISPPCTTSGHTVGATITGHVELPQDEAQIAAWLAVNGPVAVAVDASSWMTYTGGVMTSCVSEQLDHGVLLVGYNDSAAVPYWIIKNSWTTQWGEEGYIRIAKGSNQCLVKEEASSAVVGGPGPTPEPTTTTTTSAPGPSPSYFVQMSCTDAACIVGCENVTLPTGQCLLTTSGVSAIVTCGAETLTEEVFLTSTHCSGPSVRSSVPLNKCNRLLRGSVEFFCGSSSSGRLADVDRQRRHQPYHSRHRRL
Test: qHTS Assay for Promiscuous and Specific Inhibitors of Cruzain (without detergent); also: nearly all actives have a fitted effect of over 40% in size;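 as to max response, negative = inhibition: plate controls were enzyme without inhibitor for no effect and buffer without enzyme for full effect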
Conditions: purified cruzain, Z-FR-AMC fluorescence, no detergent
Procedure, shortened: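 Detergent-free condition (0.00005% Triton X-100) in acetate buffer pH 5.5 with DTT. 1.5 nM enzyme and compound were pre-mixed 15 min, then 2 uM Z-FR-AMC substrate added; reaction progress from fluorescence change between first and third reads (60 s).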
Potency is read from the fitted curve at half-maximal effect; tags tell the direction and shape of the fitted curve.

Row | Structure (SMILES) | Potency | max response, negative = inhibition
1 | O=C(COC(=O)CNS(=O)(=O)c1ccc2ccccc2c1)Nc1ccc2c(c1)OCO2 | inconclusive: 25.1 µM [inhibitor, single point] | –
2 | COc1ccc(N(C)S(=O)(=O)c2c(C)[nH]c(=O)[nH]c2=O)c(OC)c1 | – | inactive: -0.851%
3 | CCCCc1ccc(NC(=O)COc2ccc(C(=O)Nc3ccccc3C)cc2)cc1 | active: 31.6 µM | –
4 | O=C(Nc1nnc(SCc2ccc(Cl)cc2)s1)c1cnccn1 | inconclusive: 31.6 µM [inhibitor, single point] | –
5 | CCCCn1c(CN2CCN(c3cccc(Cl)c3)CC2)nc2c1c(=O)n(C)c(=O)n2C | inconclusive: 7.94 µM [activator, single point] | –
6 | COc1cccc(C(=O)NCCc2csc3nc(-c4ccccc4F)nn23)c1OC | – | inactive: -4.59%
7 | CCOC(=O)c1cc(-c2ccc(OC)cc2)n(CCC(=O)NCCc2ccccc2)c1C | inconclusive: 25.1 µM [activator, single point] | –
8 | CC(C)C[C@H](NC(=O)N1CCCCCC1)C(=O)N[C@H](Cc1cn(C)c2ccccc12)C(=O)N[C@H](Cc1ccccn1)C(=O)O | inconclusive: 15.8 µM [activator, single point] | –
9 | COC(=O)c1ccc(NC(=O)CN2CCN(S(=O)(=O)c3cc(Cl)ccc3OC)CC2)cc1 | inconclusive: 20 µM [activator, single point] | –
10 | O=C(CSc1ccccc1Cl)N1CCC(c2nc3ccccc3s2)CC1 | inconclusive: 20 µM [activator, single point] | –
11 | C[C@H](NCCc1ccc(O)cc1)[C@@H](O)c1ccc(O)cc1 | – | inactive: 7.92%
12 | NC(=Nc1ccccc1)NC(=O)c1nc(Cl)c(N)nc1N | inconclusive: 20 µM [inhibitor, single point] | –
13 | COc1ccc(/C=N/n2cc(-c3ccc(OC)cc3)nc2N)cc1 | active: 31.6 µM | –
14 | Clc1ccc(-c2cnc3ccccc3n2)cc1 | – | inactive: -6.82%
15 | Cn1c(C(=O)NCCN2CCCCCC2)cc2c(=O)n(C)c3ccccc3c21 | active: 7.94 µM | –
16 | O=C1CC(N2CCC(c3nc4ccccc4o3)CC2)C(=O)N1Cc1cccs1 (stereo not drawn) | inconclusive: 39.8 µM [activator, single point] | –
17 | Cc1ccccc1-c1ccc(Nc2ccc(N3CCOCC3)cc2)nn1 | active: 25.1 µM | –
18 | CCn1cc(C(=O)NCCCN(C)c2ccccc2)c(=O)c2cc(S(=O)(=O)N(C)C)ccc21 | inconclusive: 39.8 µM [activator, single point] | –
19 | COc1ccc(OC)c(NS(=O)(=O)c2ccc(NC(=O)C3COc4ccccc4O3)cc2)c1 (stereo not drawn) | inconclusive: 39.8 µM [inhibitor, single point] | –
20 | Cc1cc(C)cc(Nc2nc3c(S(=O)(=O)c4ccccc4)nnn3c3ccccc23)c1 | inconclusive: 7.94 µM [inhibitor, single point] | –
21 | CC(C)(C)CC(=O)Nc1nnc(-c2cccs2)s1 | inconclusive: 39.8 µM [inhibitor, single point] | –
22 | Cc1ccc(-n2ncc(C(=O)NCc3ccco3)c2C2CCN(C(=O)OC(C)(C)C)CC2)cc1C | – | inactive: 14.8%

Row | Structure (SMILES) | Potency | max response, negative = inhibition
23 | CCn1cc(C(=O)NC2CCCCC2)c(=O)c2cc(S(=O)(=O)N(C)C)ccc21 | inconclusive: 39.8 µM [activator, single point] | –
24 | CCN(CC)S(=O)(=O)c1cc(-c2nnc(-c3ccc(Br)cc3)o2)ccc1Br | inconclusive: 20 µM [inhibitor, partial curve] | –
25 | O=C(CSc1nc(-c2cccc(F)c2)[nH]c1-c1ccccc1)Nc1ccc2c(c1)OCO2 | inconclusive: 25.1 µM [inhibitor, single point] | –
26 | COc1ccc(/C=C/C(=O)/C=C/c2ccc(OC)cc2OC)c(OC)c1 | active: 3.16 µM | –
27 | COc1ccc(-n2c(Cc3cccn3C)nnc2SCC(=O)Nc2ccc(C)cc2)cc1 | – | inactive: 19%
28 | CCN1CCN(C(=S)Nc2ccc(Cl)c(Cl)c2)CC1 | – | inactive: -3.04%
29 | COC(=O)c1cc2sc(Cl)cc2n1CC(=O)Nc1cccc(SC)c1 | active: 25.1 µM | –
30 | Cc1nc2scc(-c3ccc(Cl)cc3)c2c(=O)o1 | inconclusive: 39.8 µM [inhibitor, single point] | –
31 | NC(=O)c1cc(S(=O)(=O)N2CCN(c3cccc(C(F)(F)F)c3)CC2)cs1 | inconclusive: 39.8 µM [inhibitor, single point] | –
32 | Cc1ccc(S(=O)(=O)N2CCOCC2)cc1C(=O)N1c2ccccc2Sc2ccccc21 | inconclusive: 39.8 µM [activator, single point] | –
33 | Cc1cccc2cc(C3CC(c4ccco4)=NN3S(=O)(=O)c3ccccc3)c(Cl)nc12 (stereo not drawn) | inconclusive: 39.8 µM [inhibitor, single point] | –
34 | CCN(CC)S(=O)(=O)c1ccc(C(=O)NCCSc2c(-c3ccccc3)[nH]c3ccccc23)cc1 | inconclusive: 39.8 µM [inhibitor, single point] | –
35 | Cc1cc2cc3c(cc2nc1SCC(=O)N1c2ccccc2CC1C)OCO3 (stereo not drawn) | inconclusive: 31.6 µM [inhibitor, single point] | –
36 | Cc1ccc(C2CC(c3ccccc3)=NN2c2ccccc2)o1 (stereo not drawn) | inconclusive: 3.16 µM [inhibitor, partial curve, poor fit] | –
37 | CC1=C(C(=O)O)N2C(=O)C(NC(=O)C(N)c3ccccc3)C2SC1 (stereo not drawn) | – | inactive: 4.23%
38 | Cc1cc(C)cc(NC(=O)Cc2noc3ccccc23)c1 | – | inactive: -21.2%
39 | O=C(c1ccccc1)N1c2nc(-c3ccco3)nn2C2(CCCCC2)[C@@H]2CCCC[C@@H]21 | – | inactive: -1.45%
40 | CCN(CC)CCNC(=O)CCn1c(=S)[nH]c2cc3c(cc2c1=O)OCO3 | inconclusive: 31.6 µM [inhibitor, single point] | –
41 | O=C(NNc1nc2ccccc2s1)Nc1ccccc1 | inconclusive: 31.6 µM [inhibitor, single point] | –
42 | Cc1ccc2c(c1)c1cccc3c1n2CCN3CCC(N)=O | inconclusive: 25.1 µM [activator, single point] | –
43 | Cc1nc2c3ccccc3nc(SCC(=O)c3ccc(Cl)cc3)n2n1 | inconclusive: 31.6 µM [activator, single point] | –

From PubChem BioAssay AID1476 (National Center for Advancing Translational Sciences (NCATS), 2009)
